This note sets out measurements from publication PMC10726135.

This is one part of the list. At the low end of the ranking the order means little. The protein was read in a cell extract, so binding may be indirect.

The assay concerns the target T1, HNF4alpha2 (COS-7 nuclear extract) (UniProt P41235).
T1 sequence: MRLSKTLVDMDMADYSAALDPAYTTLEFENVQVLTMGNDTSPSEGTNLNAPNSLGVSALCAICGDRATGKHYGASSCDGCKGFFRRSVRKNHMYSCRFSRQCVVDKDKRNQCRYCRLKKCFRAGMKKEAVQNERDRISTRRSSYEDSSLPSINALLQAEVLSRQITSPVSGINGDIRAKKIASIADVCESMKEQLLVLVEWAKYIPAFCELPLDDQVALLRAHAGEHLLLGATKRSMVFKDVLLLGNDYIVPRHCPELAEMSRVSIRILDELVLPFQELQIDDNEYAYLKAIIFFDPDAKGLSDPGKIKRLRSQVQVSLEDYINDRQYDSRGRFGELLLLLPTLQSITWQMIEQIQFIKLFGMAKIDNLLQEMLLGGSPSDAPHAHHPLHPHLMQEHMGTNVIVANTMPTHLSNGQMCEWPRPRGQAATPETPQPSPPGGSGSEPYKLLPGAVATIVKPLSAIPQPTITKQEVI
Kind of assay: protein-binding microarray. The following applies: COS-7 nuclear extract on double-stranded Agilent 4x180k PBM; binding buffer, salt, pH and temperature not given; high values mean tight binding; double strand, one strand shown; sequences stand for … in …GCCTAGGGAGATTAGAGTATCGGTCGA
As to AGACCAAGGAGGCCTCTTCCCCAAACTAGG, the binding signal (log2 normalized intensity) was -1.13.

For the sequence GCCTGGAGGTACCTAGGGGACATTCTTTAG, the binding signal (log2 normalized intensity) was -0.918.

Regarding ACCAGCTGCCTCTTGTGTTCACTCTAGGAA, the binding signal (log2 normalized intensity) is -1.07.

AGGGTTCAAACTCCAGCTCTGATACTTTCT: the binding signal (log2 normalized intensity) is 3.12.

With GGTGTGAGAGGGCAAAGGTCACAGCATTAG, the binding signal (log2 normalized intensity) amounted to 6.76.

GACACCGGGTGAAGGTTAAATAGCTCATTA: the binding signal (log2 normalized intensity) is 0.567.

In the case of TTTTTCCCCTGAAATATCATTATCTTGATC, the binding signal (log2 normalized intensity) was determined as 1.53.

On to CTCATTGGCCAGTATCCGCCTTCACTCCCC, for which the binding signal (log2 normalized intensity) is 1.85.

As for AGAGGAGGCCCACACCCCTGGGGAAGGCAG, the binding signal (log2 normalized intensity) is -1.16.

As to TTGCCCAGTATTGATGTGAGGGTAGGAGCC, the binding signal (log2 normalized intensity) came out at 0.702.

As to TGAGTAATTACTATAAATGCTCTGGCCTTT, the binding signal (log2 normalized intensity) amounted to 1.65.

On to AGACAAATGCTTTTGAACACCTGTCCCTAG, for which the binding signal (log2 normalized intensity) is -1.17.

Consider GTCCTGCCACATCCCCCACACCGAGATAGT, for which the binding signal (log2 normalized intensity) was determined as 3.97.

In the case of GTGAGGCAATGCCTCGCCCTGCTTCGGCTC, the binding signal (log2 normalized intensity) is -1.18.

As to CCTTATCTCGTTCTGATAGCAAGGAGAATT, the binding signal (log2 normalized intensity) was determined as 0.627.

For the sequence AAAATCTTCAAACAACCCTTCGCTAGAGCA, the binding signal (log2 normalized intensity) is -1.08.

As for GGGTCACGAGACGGTGTCCCTGGCCAATCC, the binding signal (log2 normalized intensity) was -1.04.

Consider CTTACTTGGCATCATCAAACAAGATTTATC, for which the binding signal (log2 normalized intensity) is -0.732.

Regarding AAGATAAAGGGACAGGGGTCATCAGGGGTC, the binding signal (log2 normalized intensity) was found to be 2.66.

As for CCTTAGCTTATCGTCCCTTCCCTCTGTCTT, the binding signal (log2 normalized intensity) came to 1.61.

For the sequence ACTGTGATGGAACAGTGTAACACATGGCAT, the binding signal (log2 normalized intensity) was 1.07.

With AGCACAATCAAAGCAATGGCTACCAAGGAG, the binding signal (log2 normalized intensity) is -1.11.

With TAGCCACAATAATGTGATAAGAATTTTGTG, the binding signal (log2 normalized intensity) was found to be 0.563.

Consider CAGGGTCAGTGCAATCACGCCTCAAATGAG, for which the binding signal (log2 normalized intensity) is -1.09.

With CAGTGCAAGGGACCTAGGTGAGCAGGCAGA, the binding signal (log2 normalized intensity) was -1.1.

As for GGGGAGAGGGGGTTAAAGGTTATTTGCTCA, the binding signal (log2 normalized intensity) stood at 4.32.

CACCCTGCTCCAGCCAGAGGCCTTATCTGG: the binding signal (log2 normalized intensity) was -1.11.

Regarding GGCATTAATTCTTCTTTGAAAGTTTGGTGG, the binding signal (log2 normalized intensity) came out at 2.23.

AATGGAAAGAATATGAACTTTGGAAATGCA: the binding signal (log2 normalized intensity) was 1.99.

Turning to ACTCAGTCCTTTCAGGACACCTTCAGGGCT, the binding signal (log2 normalized intensity) is -1.19.

With GGGGAGGCAGGAGTGGGAGGCTGGGGCCTC, the binding signal (log2 normalized intensity) is -1.03.

Regarding TACACTACAGGCAAGAGAATCAGAGAGATA, the binding signal (log2 normalized intensity) was -1.14.

For the sequence ACCATGCTCTAGTCTTCCTGTCTCCATTGC, the binding signal (log2 normalized intensity) worked out at 1.39.

Turning to ATCACCATCAGATCTGGGTGTGCCATTCTT, the binding signal (log2 normalized intensity) was 0.838.

For CAGGTTCATTCTTTAAGTGTGGGGTGACTG, the binding signal (log2 normalized intensity) is 1.83.

Consider AAGTGACCCTCAGACACACAGTCCACAGGC, for which the binding signal (log2 normalized intensity) was -1.16.

As for AACATGCTGCAGGCATTTCTGGAATTCTCT, the binding signal (log2 normalized intensity) was -1.2.

For AAATCTCTCTGGTCAAAGGGTAAAGATTAT, the binding signal (log2 normalized intensity) was 2.51.

Consider CAAAGTCCAAAGCCTCATCTGAGATAAGGC, for which the binding signal (log2 normalized intensity) was found to be 1.83.

With GTCACAGTATTCATTCCCCTAGTATATTGG, the binding signal (log2 normalized intensity) was 2.13.

On to GCAGAGGTCAATGTCCACACCCCAGTTTCA, for which the binding signal (log2 normalized intensity) turned out to be 4.72.

With TTTGTTCATATCGGCTCCATCTAGCAGCCC, the binding signal (log2 normalized intensity) was -0.983.

For the sequence ACCTTTTTTTCATGCAAATTTCCGTGTCGA, the binding signal (log2 normalized intensity) came to 1.59.

Regarding GGCAAATTGAAACCTTGCGCAAGTCCCAGA, the binding signal (log2 normalized intensity) was -1.07.

In the case of ACCTGCCAAAGAAGAAAACAATGACCTCTG, the binding signal (log2 normalized intensity) came to 3.49.

Consider ACAAAATACAAGTCGTAAAGACCTTGCTGA, for which the binding signal (log2 normalized intensity) was -0.977.

On to CTGGAATGATACGCCGGCCAATCCGGCTGG, for which the binding signal (log2 normalized intensity) was -1.08.

Regarding GAGAGTAAGTTTCTGTCTCACCTGTAAATG, the binding signal (log2 normalized intensity) was 0.585.

For AGGATACCTAGTAGGCACAAAGGTGCAAAG, the binding signal (log2 normalized intensity) was found to be 0.000482.

With AGCAGTTCACACTCCCACCAGCATGGTGAT, the binding signal (log2 normalized intensity) is -1.04.

As to AGAGAAAGGGTCAATGTGATCAGGTGTGGG, the binding signal (log2 normalized intensity) was determined as 1.3.

For TTCTCAGGCATCTCTGGGGGTCAGAAGTCC, the binding signal (log2 normalized intensity) was 4.43.

For the sequence AGTTACTTAAGCCATCTGCTGCCTCAGTTT, the binding signal (log2 normalized intensity) is -1.1.

Take AACATGGGCTTAAGACAAGAATGTGAGATA: the binding signal (log2 normalized intensity) stood at 0.211.

With CAAAGGTCACTTAGTCCCTAAGTCTTTCAA, the binding signal (log2 normalized intensity) was determined as 2.79.

On to TTCCTGGAAATCCCGAAATAGAGCCAAACA, for which the binding signal (log2 normalized intensity) was -1.23.

Consider CCTAGCAAACAATGAGGACGTGTGTGTTCT, for which the binding signal (log2 normalized intensity) worked out at 1.93.

Turning to CTGCCTAACAGGAGTGTTTTTTTCACCTGG, the binding signal (log2 normalized intensity) came out at 0.67.

For the sequence AGCCCAGTCTTGGCCCCACCGGTCACGACC, the binding signal (log2 normalized intensity) came to 1.27.

In the case of AAGGTGCTACCACGAGAGTAGAGAGTTGTT, the binding signal (log2 normalized intensity) was -0.729.

Turning to TATAGGGGAGGTCCTAAAGAGGATATCCTG, the binding signal (log2 normalized intensity) was -0.197.

In the case of CTTTTCTGCTTTTGGAATTTGACCTCATTT, the binding signal (log2 normalized intensity) came to 6.91.

In the case of GTGTACTGAGCAGGGTCCAACCCACAGGGG, the binding signal (log2 normalized intensity) came to 0.66.

Take CACAGGTGACCTCTGGCCACTGCAGGGAGG: the binding signal (log2 normalized intensity) came out at 1.75.

On to CAATCAGTGTGTTGACATTTGAACCCAACC, for which the binding signal (log2 normalized intensity) is 4.22.

AGGACTTGCGGTGTTACACTTGTTTAAATG: the binding signal (log2 normalized intensity) came to 1.74.

GGGTCATCAGGGGTCCTGGCAGCACCTGAA: the binding signal (log2 normalized intensity) is -0.921.

With ATTGCGGGCTGGTTGGCACGCTTAGGGAAC, the binding signal (log2 normalized intensity) is -1.

For ATATTGACATTCCAGCCTCCAGCTACTCAC, the binding signal (log2 normalized intensity) was -1.06.

With GCAGATGAAGTCCAAAGGCCATCTGCTGGA, the binding signal (log2 normalized intensity) was 2.95.

GTTATCAACCTTATCAGCAGGACACCAAAC: the binding signal (log2 normalized intensity) is -0.767.

For GCAGCGGGCAGCCCGTGTGGGCGGGTGCAG, the binding signal (log2 normalized intensity) is -0.856.

As for ACCATGAGAGGGTTAAAAACCAGAATGACA, the binding signal (log2 normalized intensity) is -1.22.
